The whole screen tested about 220,000 compounds, of which about 16,000 (7.3%) were called active. This list was built around the results that the source calls inconclusive (neither active nor inactive); the mix of calls is not that of the screen. Calls come from the whole dose curve; as a rule, active = well fitted inhibition curve with a large enough effect (not every such curve was filed as active); inconclusive = small, poorly fitted or top-dose-only effect, or another doubt; inactive = no such curve, though single readings can be large or run the other way. No potency is given beside an inconclusive call; the fits are too rough.
These compounds were tested against Aldehyde dehydrogenase 1A1 (Homo sapiens) (UniProt P00352) (assay: qHTS Assay for Inhibitors of Aldehyde Dehydrogenase 1 (ALDH1A1)). Conditions: Purified ALDH1A1, NADH fluorescence, propionaldehyde substrate; series mostly up to 75.3 µM.
Chain of UniProt P00352 (P00352 whole entry, looked up): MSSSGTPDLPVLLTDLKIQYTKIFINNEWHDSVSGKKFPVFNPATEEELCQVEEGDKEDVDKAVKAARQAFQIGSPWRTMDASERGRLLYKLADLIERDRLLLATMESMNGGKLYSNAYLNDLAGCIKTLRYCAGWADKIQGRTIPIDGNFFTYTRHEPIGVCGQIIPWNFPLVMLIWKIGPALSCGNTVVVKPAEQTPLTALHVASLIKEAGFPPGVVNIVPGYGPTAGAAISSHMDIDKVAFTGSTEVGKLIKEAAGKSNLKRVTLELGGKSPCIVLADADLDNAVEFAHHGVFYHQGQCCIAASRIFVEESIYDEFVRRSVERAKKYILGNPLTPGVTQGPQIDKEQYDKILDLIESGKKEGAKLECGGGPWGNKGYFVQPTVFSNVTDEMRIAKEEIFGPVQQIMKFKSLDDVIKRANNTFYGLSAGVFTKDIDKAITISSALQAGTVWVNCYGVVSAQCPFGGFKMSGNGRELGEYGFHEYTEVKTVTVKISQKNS
Potency is the fitted concentration of half-maximal effect; tags give direction and shape of the fitted curve.

| Structure (SMILES) | Potency |
| --- | --- |
| O=C1Nc2cc3c(cc2Sc2ccccc21)OCCO3 | inactive |
| O=C(Oc1ccccc1C(=O)Oc1ccccc1)c1cccnc1 | inconclusive [inhibitor, partial curve] |
| Cn1nccc1CNC(=O)c1c(Cl)cnn1C | inactive |
| CCC(C)C(=O)Nc1nc(-c2ccc3c(c2)NC(=O)CO3)cs1 (stereo not given) | active: 20 µM |
| CCSc1nnc(NC(=O)c2ccccn2)s1 | inconclusive [inhibitor, single point] |
| O=S(=O)(N1CCCCC1)N1CCN(c2ccc(F)cc2)CC1 | inconclusive [inhibitor, partial curve] |
| CCOc1ccc(N2C(=O)CC(N3CCC(NC(=O)Nc4ccccc4)CC3)C2=O)cc1 (stereo not given) | inactive |
| Cc1c(Cl)cccc1NC(=S)NCc1cccn1C | inconclusive [inhibitor, single point] |
| CC1=C(C(=O)Nc2ccc([N+](=O)[O-])cc2)C(c2cccc(C(F)(F)F)c2)NC(=S)N1c1ccccc1 (stereo not given) | active: 14.1 µM |
| CCS(=O)(=O)c1nc(S(=O)(=O)c2ccc(Cl)cc2)c(N2CCc3ccccc3C2)s1 | active: 1.41 µM |
| c1ccc(N2CCN(Cc3nc4ccccc4[nH]3)CC2)nc1 | inconclusive [inhibitor, single point] |
| Cc1ccnc(SCC(=O)N2CCN(C(c3ccccc3)c3ccccc3)CC2)n1 | inconclusive [inhibitor, partial curve, poor fit] |
| COc1ccc2c(c1)O[C@@H](c1ccc3c(c1)OCO3)[C@H](OC(=O)N[C@H]1CCCc3ccccc31)C2=O | inactive |
| CC(NC(=O)c1ccc(OC2CCN(Cc3ccccn3)CC2)cc1)c1ccccc1 (stereo not given) | inconclusive [inhibitor, single point] |
| CC(Sc1nnc(COc2ccc([N+](=O)[O-])cc2)n1-c1ccccc1)C(=O)O (stereo not given) | inconclusive [inhibitor, single point] |
| O=C(NCCCCCCNC(=O)c1cccs1)c1cccs1 | inactive |
| COc1ccc(N2C(=O)CC(Sc3ccccc3C(=O)O)C2=O)c([N+](=O)[O-])c1 (stereo not given) | active: 1 µM |
| C#CCNC(=O)C1=C[C@H](C2CC2)C[C@H](OCCCCO)O1 | inconclusive [inhibitor, single point] |
| CCN(C(=O)COC(=O)C1CCN(S(=O)(=O)c2cccs2)CC1)c1ccccc1 | inactive |
| C/C(N)=C(/C#N)C(=O)COC(=O)c1ccc(C)c(S(=O)(=O)N2CCCCC2)c1 | inconclusive [inhibitor, single point] |
| O=c1c2c(-c3cccs3)csc2[nH]c(=S)n1-c1ccccc1 | active: 22.4 µM |
| CCOC(=O)NC(=O)COC(=O)Cc1cc(OC)c(OC)c(OC)c1 | inconclusive [inhibitor, single point] |
| O=C(COC(=O)Cc1c(Cl)cccc1Cl)Nc1ccc(OC(F)(F)F)cc1 | inactive |
| O=C(NC1CCCC1)C1CCC(CNS(=O)(=O)c2cccs2)CC1 (stereo not given) | active: 22.4 µM |
| Nc1sc2c(c1C(=O)c1ccccc1)CCCC2 | active: 14.1 µM |

| Structure (SMILES) | Potency |
| --- | --- |
| CC1CCCCN1CCNC(=O)c1cc2c(=O)n(C)c3ccccc3c2n1C (stereo not given) | inconclusive [inhibitor, single point] |
| Cc1ccccc1NC(=O)Cc1nnc(SCc2ccc(Cl)c(Cl)c2)n1C | inconclusive [inhibitor, single point] |
| O=C(Nc1ccccc1Cl)c1ccc(-n2cccn2)c([N+](=O)[O-])c1 | active: 8.91 µM |
| CN1CCN(CC(=O)Nc2ccc(Oc3ccccc3)cc2)CC1 | inactive |
| O=C(c1ccc(S(=O)(=O)N2CCCCC2)cc1)N1CCN(CCN2C(=O)c3cccc4cccc(c34)C2=O)CC1 | active: 0.631 µM |
| Cc1cc(C(=O)Nc2ccc(N3CCOCC3)cc2)c2ccccc2n1 | inactive |
| CCOC(=O)N1CCN(C(=O)CSc2nnc(-c3ccccc3OC)o2)CC1 | inconclusive [inhibitor, partial curve] |
| Nc1nc2sc3c(c2cc1C(=O)N1CCOCC1)CCCC3 | inconclusive [inhibitor, single point] |
| O=c1c(/C=N/O)c(Nc2ccccc2)nc2ccccn12 | inconclusive [inhibitor, partial curve] |
| Cc1ccc(-c2nc(C#N)c(NCCN3CCCCC3)o2)cc1 | inconclusive [inhibitor, partial curve] |
| CC1(C)CC(=O)c2cnc(NC3CC3)nc2C1 | inconclusive [inhibitor, single point] |
| C/C(=N/NC(=O)Cc1cccs1)c1ccco1 | inconclusive [inhibitor, partial curve] |
| O=C(NC(=S)Nc1ccc(Cl)cn1)c1cccs1 | inconclusive [inhibitor, single point] |
| OCCN(Cc1ccccc1)Cc1cccc(Cl)c1Cl | inconclusive [inhibitor, partial curve, poor fit] |
| COc1ccc(C2=NO[C@@H]3C(=O)N(c4ccc(C)cc4C)C(=O)[C@H]23)cc1OC | active: 22.4 µM |
| Oc1ccc(-c2csc(Nc3ncccn3)n2)cc1O | inconclusive [inhibitor, single point] |
| Cc1ccc(NC(=O)COC(=O)/C=C/c2cccc(Cl)c2)cc1S(=O)(=O)N1CCOCC1 | inactive |
| CCCCNC(=O)c1cc2c(=O)n3cccc(C)c3nc2n(Cc2ccncc2)c1=N | inconclusive [inhibitor, partial curve] |
| CCCSc1nnc(CSc2nc3nc(C)cc(C)n3n2)o1 | inactive |
| COC(=O)C1C2C=CC(C3CC23)C1C(=O)OCC(=O)c1ccc(OC)cc1 (stereo not given) | active: 6.31 µM |
| CCOC(=O)c1c(C)nc2cc(C)cc(C)n12 | inactive |
| CCn1nnnc1SCC(=O)N1c2ccccc2Sc2ccccc21 | active: 12.6 µM |
| Cc1ccc(C(=O)c2cc3ccccc3o2)cc1 | inconclusive [inhibitor, single point] |
| COc1cc(SC)ccc1C(=O)NCCOc1ccc(Cl)cc1 | inactive |
| COc1ccc([N+](=O)[O-])cc1NC(=O)CSCc1ccccc1C | inconclusive [inhibitor, single point] |

| Structure (SMILES) | Potency |
| --- | --- |
| CCOC(=O)N1CCC(NC(=O)c2cc3c(=O)n(C)c4ccccc4c3n2C)CC1 | inconclusive [inhibitor, single point] |
| O=C1CC(c2ccncc2)c2cc3c(cc2N1)OCO3 (stereo not given) | inactive |
| Cc1ccc(Cn2c(=O)n(-c3ccccc3)c(=O)c3ccc(C(=O)NCc4ccco4)cc32)cc1 | inactive |
| COc1ccc(NC(=O)c2ccccc2[N+](=O)[O-])cc1 | inactive |
| O=C(COC(=O)CNC(=O)c1ccccc1F)NCC(F)(F)F | inactive |
| Cc1nc(NC(=O)CC(C)C)sc1-c1csc(Nc2ccc(Cl)cc2)n1 | inconclusive [inhibitor, single point] |
| CCC(C)[C@@H](C(=O)N1CCNCC1)n1cc(CCCCN)nn1 (stereo not given in full) | inactive |
| Cc1ccc(Cl)cc1NC(=O)COC(=O)c1ccc(COc2ccc3c(C)cc(=O)oc3c2)cc1 | inconclusive [inhibitor, partial curve] |
| CCN1CCC2(CC1)N=C(c1ccc(F)cc1)C(=S)N2 | inconclusive [inhibitor, single point] |
| Cc1ccc(/C=N/N=C2/NC(=O)C(CC(=O)N3CCOCC3)S2)cc1 (stereo not given) | inconclusive [inhibitor, single point] |
| CC(C(=O)N1CCc2ccccc21)N1CCc2ccccc2C1 (stereo not given) | inconclusive [inhibitor, single point] |
| CC(=O)C1=C(C)NC(SCC(=O)c2ccc(Cl)cc2Cl)=C(C#N)C1c1ccco1 (stereo not given) | inconclusive [inhibitor, single point] |
| COc1cccc(N/N=C(\C#N)S(=O)(=O)C(C)(C)C)c1 | inactive |
| COc1ccnc(CSC(N)=Nc2cccc(C(F)(F)F)c2)c1 | active: 20 µM |
| O=C(c1cc(-c2ccc(O)cc2)on1)N1CCc2ccccc2C1 | inconclusive [inhibitor, single point] |
| CCc1ccc(NC(=O)Cn2cnc3c(=O)n(C)c(=O)n(C)c32)cc1 | inactive |
| COc1ccc(CC(=O)Nc2c3c(nn2-c2cccc(Cl)c2)CS(=O)(=O)C3)cc1 | inconclusive [inhibitor, single point] |
| Cc1ccc2nc(N3CCCCC3)c(C=O)c(=O)n2c1 | inconclusive [inhibitor, single point] |
| CCOC(=O)c1ccccc1NC(=O)N1CCn2c(C)ccc2C1CC (stereo not given) | inconclusive [inhibitor, single point] |
| COC(=O)C1=CNC=C(C(=O)OC)C1c1ccc(C(=O)OC)cc1 | inconclusive [inhibitor, partial curve] |
| COC(=O)c1n[nH]c2ccccc12 | inactive |
| CC(=O)C1=C(O)C(=O)N(CCc2c[nH]c3ccccc23)C1c1ccccc1 (stereo not given) | inconclusive [inhibitor, single point] |
| O=C1c2ccccc2C(=O)c2[nH]cnc21 | inconclusive [inhibitor, single point] |
| Fc1ccc2c(Cl)c(-c3nnc(-c4cccs4)o3)sc2c1 | inconclusive [inhibitor, partial curve] |
| CC1CCN(CC(=O)Nc2ccccc2-c2ccccc2)CC1 | inconclusive [inhibitor, partial curve, poor fit] |

— PubChem BioAssay AID1030 (National Center for Advancing Translational Sciences (NCATS), 2008)
